In the RNAGym collection of RNA variant scans (doi:10.7554/elife.90254) one finds self-cleavage data, which are given here for 167 variants.

Read counts are not given, so values of variants with three or more changes are uncertain.

Sequences and labels used below:
B1: LINE1-mini (parent)
chain: GGCAGAGCUCAACACAGCGUGGCAAAGUGGCUGUGGCUAGACUGCC

The variants in the data set derive from B1. Briefly: self-cleavage, relative activity (ratio to wild type); higher = more cleavage; in vitro, sequencing; the parent is a self-cleaving ribozyme.
In the case of G1C C8A G17U G33A C37U U43C, the self-cleavage was 0.04.

As to G1A G2U G17C, the self-cleavage came out at 0.15.

Turning to G1A C8G G22C, the self-cleavage was 0.04.

Turning to G1A C3G C23U A26U, the self-cleavage was determined as 0.71.

Turning to G1C C3U A11U G33C G36U, the self-cleavage amounted to 0.01.

In the case of G1A G17C A24U G40U C45U, the self-cleavage came to 0.03.

As to G1A G17A G30C A39U, the self-cleavage came to 0.02.

Take G1C C3U G19U C46A: the self-cleavage amounted to 0.11.

For the variant G1A C13G C42U, the self-cleavage was 0.07.

Take G1A U9G A16U G17C A25C: the self-cleavage was 0.17.

Take G1A U9G C10U A16C C23U C31U C42A: the self-cleavage was 0.02.

Turning to G1C C8A G19U C31U, the self-cleavage came out at 0.06.

On to G1A G7A U9A, for which the self-cleavage was determined as 2.04.

As to G1C A11U G27U C42U, the self-cleavage is 0.01.

For the variant G1A C10G G29C C46A, the self-cleavage stood at 0.13.

Take G1A G2A G7U C8G G33C C42G: the self-cleavage was 0.46.

On to G1A G27A U32C G44C, for which the self-cleavage amounted to 0.03.

Regarding G1A C13U A25G G35A A41C C42G, the self-cleavage is 0.04.

With G1A C15A G21U G33C G35A, the self-cleavage came out at 0.04.

Take G1A C3G A6U U9A A14U A26G: the self-cleavage stood at 0.15.

In the case of G1A C8A U20G C23U G27U, the self-cleavage was found to be 0.26.

Regarding G1C A11G A16G A39U, the self-cleavage came to 0.01.

For G1A A14U G19C G40A U43A, the self-cleavage was 0.01.

As for G1C A6U A12G A16U U28C C31G, the self-cleavage was determined as 0.

On to G1A G19A G22C C23U, for which the self-cleavage is 1.3.

Consider G1A U20C G27A G29U G36A C46U, for which the self-cleavage stood at 0.08.

Take G1A A16G U43G: the self-cleavage is 0.03.

With G1A G21U A25G C31U C45A, the self-cleavage is 0.17.

In the case of G1A C3G G33C, the self-cleavage was 0.17.

In the case of G1C A12G C46U, the self-cleavage is 0.

In the case of G1C C10A G22C C37U, the self-cleavage worked out at 0.

For G1A G7U C10U C18A A25G, the self-cleavage is 0.05.

G1C A11C G44U: the self-cleavage was determined as 0.05.

As to G1C A14C A25C U43G, the self-cleavage stood at 0.

On to G1A A6U G21A G30C, for which the self-cleavage was found to be 0.8.

For the variant G1A G19C C46U, the self-cleavage amounted to 2.64.

Consider G1A C18G U32G G35C, for which the self-cleavage turned out to be 0.04.

G1C A12U C18G: the self-cleavage turned out to be 0.01.

On to G1A C15A G21U G27C, for which the self-cleavage worked out at 0.1.

For G1C A25U C46A, the self-cleavage was found to be 0.22.

Consider G1A G5C G30A G40A, for which the self-cleavage was 0.09.

G1A C3U G33U C42A: the self-cleavage turned out to be 0.15.

With G1C C3G G30A, the self-cleavage is 0.22.

For the variant G1C C10A G36A, the self-cleavage turned out to be 0.02.

For G1C C10G C18A A24U G40A, the self-cleavage came to 0.01.

In the case of G1C A6G C10U U28C U32C, the self-cleavage came out at 0.01.

With G1A C18A A26G, the self-cleavage came out at 0.07.

Turning to G1A A25G G40C, the self-cleavage amounted to 0.03.

Regarding G1C A6C U38C, the self-cleavage stood at 0.01.

On to G1A C18G G35U, for which the self-cleavage came to 0.07.

For the variant G1A C15U U34G, the self-cleavage came to 0.03.

Consider G1A C8A G27C, for which the self-cleavage was 0.4.

Take G1C A26C G27A: the self-cleavage turned out to be 0.04.

Take G1A A16C U34C C42G: the self-cleavage came to 0.05.

Consider G1C C3A A12C A14C G21C, for which the self-cleavage stood at 0.03.

Turning to G1A G7A G17A U38A, the self-cleavage is 0.35.

Turning to G1C C8A C15A C31U, the self-cleavage was 0.02.

Turning to G1C A4U G7C C10A A24U, the self-cleavage amounted to 0.02.

Turning to G1A A16U G19U G40U C42G, the self-cleavage turned out to be 0.28.

In the case of G1C A24C C42A, the self-cleavage turned out to be 0.02.

In the case of G1A U32C G33C, the self-cleavage stood at 0.09.

For the variant G1A A6C U32A G40U, the self-cleavage was found to be 0.08.

G1A C23U A25C: the self-cleavage was 0.35.

On to G1A U9G G21C G36U, for which the self-cleavage turned out to be 0.41.

Regarding G1C A4C C10U G29C C45U, the self-cleavage turned out to be 0.01.

As to G1A G5U G22U G29A, the self-cleavage came to 0.14.

G1A C3G C8U G44U: the self-cleavage came out at 0.18.

Regarding G1C A6U U9C C31G G35U C37G, the self-cleavage came to 0.

In the case of G1C C10A A24C G44C, the self-cleavage was 0.01.

For the variant G1C A6G G40A A41C, the self-cleavage was 0.07.

Regarding G1A C8G C15G G35C G44U, the self-cleavage was 0.23.

With G1A G44C C45A, the self-cleavage is 0.26.

For the variant G1A U28G U38A, the self-cleavage was 0.07.

On to G1C A11U C13G C15A G27U U34G U38A, for which the self-cleavage came out at 0.

As for G1A C18G C23A, the self-cleavage amounted to 0.14.

In the case of G1A C23A C31A, the self-cleavage came out at 0.73.

In the case of G1A A11G C23G, the self-cleavage stood at 0.05.

As for G1A G5C G44U C45U, the self-cleavage amounted to 0.05.

Regarding G1A C3A G35U, the self-cleavage was 2.39.

Turning to G1A G5A G7A A14U A39U, the self-cleavage is 1.18.

As for G1A C10A C18U A26G U38A, the self-cleavage came to 0.23.

In the case of G1C C13A G22U U32C G33A G40A, the self-cleavage amounted to 0.02.

As to G1C C3A A26U G27A C46U, the self-cleavage was found to be 0.32.

G1A G2U A4C C18A A39G: the self-cleavage is 0.01.

Consider G1A G2A A4G A12G G33U C42G G44A, for which the self-cleavage is 0.07.

Take G1A C10U A16C A39C: the self-cleavage stood at 0.03.

For the variant G1A C8U G35U, the self-cleavage was 0.02.

G1A C18G A24U C31A: the self-cleavage worked out at 0.13.

For G1A C15A U28G C37U, the self-cleavage came out at 0.09.

For G1C A6U A16G U38A, the self-cleavage was determined as 0.02.

Regarding G1C A4C C8G A12C G21U, the self-cleavage turned out to be 0.01.

Regarding G1A A6C A26C, the self-cleavage came to 0.31.

As for G1A G36C G40U C46U, the self-cleavage stood at 1.18.

As to G1A G19C U43G C45U, the self-cleavage stood at 0.01.

On to G1A C10U A11U G21C, for which the self-cleavage worked out at 0.09.

As for G1C A14G C15U, the self-cleavage was determined as 0.04.

G1A G5A A11C A12C A16C U32G C37U C46U: the self-cleavage amounted to 0.01.

Take G1A A6U U28C: the self-cleavage came to 0.51.

G1C A6G A12C A14G A25C: the self-cleavage was 0.

Regarding G1A G17A C18U G29A U38C, the self-cleavage turned out to be 0.14.

In the case of G1A G2U G21C A25C G29A U32G C45U, the self-cleavage was determined as 0.11.

Take G1A U20A G27C: the self-cleavage amounted to 1.93.

For G1A C3A A11U, the self-cleavage stood at 0.21.

As for G1C A16G U20G G30C, the self-cleavage was 0.01.

On to G1C A4U G7U C45A, for which the self-cleavage is 0.

In the case of G1C A4U C13U G17A A24G C31A U38G C46G, the self-cleavage amounted to 0.01.

On to G1A C15A G17C G33C, for which the self-cleavage is 0.05.

In the case of G1A C3G G22C G30A U34A C42U, the self-cleavage was found to be 0.34.

Consider G1A C13U A25U U32A C42G, for which the self-cleavage is 0.07.

Take G1C A26G G29C A39G: the self-cleavage turned out to be 0.

In the case of G1A A6G G21C, the self-cleavage was determined as 0.04.

On to G1A A4C A11U C18G G22C C42U, for which the self-cleavage was 0.02.

Take G1C C3G G21C G33U A39U: the self-cleavage was determined as 0.

For G1C A12G G27C C46U, the self-cleavage was 0.01.

For the variant G1A G5C A12G G35C, the self-cleavage was found to be 0.08.

With G1A C10G C15U G19A G33U A39U C45G, the self-cleavage came to 0.05.

For G1A A12U G17A A41U, the self-cleavage turned out to be 0.03.

As for G1C C10A A11C G19U U32G G33A, the self-cleavage worked out at 0.01.

With G1C A14U C37A, the self-cleavage worked out at 0.02.

For G1C C8G G17U G40U, the self-cleavage was 0.02.

G1A U9C G19A C23A A24U C31U U34C: the self-cleavage came to 0.02.

For G1C A4C A24U G35U, the self-cleavage was 0.01.

As to G1A G5C C18G G21U G36A, the self-cleavage was 0.09.

With G1C A16G A24C, the self-cleavage came out at 0.01.

Regarding G1A G17U C46A, the self-cleavage is 0.26.

For G1A C8G G17A A41C C46A, the self-cleavage amounted to 0.21.

For G1A A11G G35U C46A, the self-cleavage was 0.

On to G1C A6C U32C, for which the self-cleavage was determined as 0.02.

Regarding G1C C10G A26U, the self-cleavage is 0.01.

In the case of G1A C8G A11C C18U G22U C23A, the self-cleavage was found to be 0.11.

For G1A G5A G21A G30U G36A G40U, the self-cleavage was 1.07.

For G1C A12U G44U, the self-cleavage worked out at 0.

As to G1A G5A G7U A12C A25U G30C G36U, the self-cleavage turned out to be 1.05.

Turning to G1A G36C C42U, the self-cleavage amounted to 0.07.

For the variant G1A A11C A25G, the self-cleavage was found to be 0.05.

Regarding G1C C8G A11C C18U C46U, the self-cleavage was 0.02.

For G1C C3U U43A, the self-cleavage worked out at 0.1.

As for G1C A6U U28C G36C, the self-cleavage was determined as 0.01.

For G1A C10U G30C, the self-cleavage turned out to be 0.65.

Consider G1A C3G G36U U38G, for which the self-cleavage came to 0.49.

With G1A G5C C45A, the self-cleavage stood at 0.12.

On to G1C C10G C13U G30U G44A, for which the self-cleavage was determined as 0.

Consider G1A G2A G19C G27C C31U G36A U43G, for which the self-cleavage worked out at 0.01.

For the variant G1A A6C C10G G17U G40A, the self-cleavage worked out at 0.01.

For G1A G2C C18G U32C U38A, the self-cleavage stood at 0.1.

With G1A C8U A16G G27U G29U, the self-cleavage was 0.11.

On to G1C C8G G17U C18G C46A, for which the self-cleavage came out at 0.04.

As for G1C C3G U9G C10A C15A A39G, the self-cleavage was found to be 0.02.

Take G1A C23A A25G U28C A39G C45G: the self-cleavage stood at 0.02.

In the case of G1C C3U G35A, the self-cleavage worked out at 0.04.

Consider G1A G2U G40A, for which the self-cleavage worked out at 0.02.

Consider G1A C3G C45A, for which the self-cleavage was 0.87.

For the variant G1C A41G C45G, the self-cleavage turned out to be 0.01.

In the case of G1C A16U A25U, the self-cleavage was 0.03.

For the variant G1C C8A G35A, the self-cleavage is 0.03.

In the case of G1C A12G C37A, the self-cleavage amounted to 0.08.

For the variant G1C C8U G40U, the self-cleavage was determined as 0.02.

With G1A C3U A6U U9C U38A A39C, the self-cleavage came to 0.07.

In the case of G1C A6G A24G A41C, the self-cleavage is 0.03.

G1C A6U G7A: the self-cleavage came out at 0.02.

For the variant G1A U9G G35A C37U, the self-cleavage amounted to 0.53.

On to G1A A11C G44A, for which the self-cleavage was 0.03.

With G1A G2A G19C C37U, the self-cleavage worked out at 0.07.

As for G1A G2U G22C A25C U38C, the self-cleavage was determined as 0.04.

On to G1A G22C A26C, for which the self-cleavage is 0.49.

For the variant G1C A6G G29A, the self-cleavage was found to be 0.01.

In the case of G1A G7C C15U, the self-cleavage was 0.59.
